Source: article PMC4336329 (PLoS ONE, 2015)
Hit rate of the full screen: of about 310,000 compounds, about 14,000 (4.5%) showed an effect of 50% or more. Effects have a minus sign here. Some of the results follow.

Molecular target: human ether-à-go-go-related gene (hERG) potassium channel (human, UniProt Q12809)
Test: primary screen, population patch clamp on CHO cells stably expressing hERG
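Further: peak tail current of the secondary pulse compared with the same well before compound.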

Sequence of human ether-à-go-go-related gene (hERG) potassium channel (Q12809 whole entry, looked up): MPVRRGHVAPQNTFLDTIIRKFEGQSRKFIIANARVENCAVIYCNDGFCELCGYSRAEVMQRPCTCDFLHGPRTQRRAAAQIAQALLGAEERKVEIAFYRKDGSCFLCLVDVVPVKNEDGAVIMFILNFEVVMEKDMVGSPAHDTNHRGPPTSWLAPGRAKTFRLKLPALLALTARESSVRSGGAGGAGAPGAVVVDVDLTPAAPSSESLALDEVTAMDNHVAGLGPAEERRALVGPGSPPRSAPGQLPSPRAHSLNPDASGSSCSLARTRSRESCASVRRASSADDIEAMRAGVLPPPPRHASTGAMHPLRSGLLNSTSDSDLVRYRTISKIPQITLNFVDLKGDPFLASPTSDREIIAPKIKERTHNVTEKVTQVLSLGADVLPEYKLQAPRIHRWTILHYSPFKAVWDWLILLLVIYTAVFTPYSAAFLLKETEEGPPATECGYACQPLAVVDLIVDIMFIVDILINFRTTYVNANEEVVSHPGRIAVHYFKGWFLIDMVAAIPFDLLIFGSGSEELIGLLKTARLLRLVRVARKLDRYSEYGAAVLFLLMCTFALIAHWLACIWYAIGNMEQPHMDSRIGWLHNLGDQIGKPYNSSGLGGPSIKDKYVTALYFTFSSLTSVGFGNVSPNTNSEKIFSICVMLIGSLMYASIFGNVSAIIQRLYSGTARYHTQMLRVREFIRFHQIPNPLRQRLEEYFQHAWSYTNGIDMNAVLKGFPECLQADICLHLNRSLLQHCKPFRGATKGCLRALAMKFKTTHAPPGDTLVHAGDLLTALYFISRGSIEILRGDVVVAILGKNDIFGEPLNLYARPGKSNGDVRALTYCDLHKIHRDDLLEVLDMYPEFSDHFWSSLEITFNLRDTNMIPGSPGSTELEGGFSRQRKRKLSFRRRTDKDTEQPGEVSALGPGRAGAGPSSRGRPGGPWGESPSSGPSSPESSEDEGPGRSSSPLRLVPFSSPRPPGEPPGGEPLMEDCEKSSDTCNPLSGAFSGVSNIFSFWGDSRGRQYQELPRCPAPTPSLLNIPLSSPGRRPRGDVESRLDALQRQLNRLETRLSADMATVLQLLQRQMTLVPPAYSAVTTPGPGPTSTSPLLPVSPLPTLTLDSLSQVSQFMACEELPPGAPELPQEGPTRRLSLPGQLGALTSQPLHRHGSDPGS

Compound	hERG current change (%, negative = inhibition) at 10uM
CCC(C)(C)NC(=O)Cc1ccc(Cl)cc1	-5.36%
CCOc1ccc(NC2OC(CO)C(O)C(O)C2O)c([N+](=O)[O-])c1 (centres unmarked)	9.94%
COc1ccc(Cl)cc1S(=O)(=O)N1CCC(C(=O)N2CCOCC2)CC1	-1.39%
CC(C)[C@H](NC(=O)OCc1ccccc1)C(=O)OCC(=O)NC1CCCCC1	0.561%
CCOC(=O)Cn1nc(-c2ccccc2)c2cnc3ccc(CC)cc3c21	7.54%
CCOc1ccccc1NS(=O)(=O)c1ccc(Br)s1	-4.66%
COc1ccc(-c2ccc(NC(=O)c3ccc(Br)o3)cc2)nn1	0.343%
CC(C)CCNC(=O)CSc1nc2ccccc2s1	11.9%
COc1ccc(OC)c(S(=O)(=O)N2CCC(C(=O)NCCC3=CCCCC3)CC2)c1	-27.1%
N#Cc1ccccc1NC(=S)NC(=O)c1cccnc1	13.7%
COc1cc(C(=O)OCCNC(=O)c2ccccc2)cc(OC)c1OC	6%
CCCc1noc(-c2ccc(-c3ccccc3)cc2)n1	-2.69%
CCOC(=O)c1[nH]c2ccc(OC)cc2c1NC(C)=O	-5.75%
Cc1ccc(NC(=O)C(C)N2C(=O)C3CC=C(Cl)CC3C2=O)cc1 (centres unmarked)	-3.06%
COc1ccc(NC(=O)CSc2nnc(-c3ccco3)c(-c3ccco3)n2)cc1OC	-29.4%
O=C(c1ccccc1)N1CCN(C(=O)N2CCOCC2)CC1	25.7%
CCCCn1c(N)c(N(C)C(=O)c2ccc(-n3cccn3)cc2)c(=O)[nH]c1=O	0.138%
CC(=O)c1ccc(NC(=O)CSc2ccc(-c3ccc(-n4cccn4)cc3)nn2)cc1	-7.65%
COc1ccccc1C(=O)NC(=S)N1CCc2ccccc21	72.5%

Compound	hERG current change (%, negative = inhibition) at 10uM
CCN(CC)C(=O)Nc1cnc2ccccc2c1	5.1%
CCOc1ccc(Cl)cc1S(=O)(=O)N1CCC(C(=O)NCc2ccncc2)CC1	-10.5%
COc1ccc(C2=NOC(C(=O)O)C2)cc1 (centres unmarked)	3.25%
O=C(O)c1ccc(CN2C(=O)c3ccc(Oc4ccc([N+](=O)[O-])cc4)cc3C2=O)cc1	1.34%
C=CCNC(=O)C1CC(=O)N(c2ccc(OCC(=O)Nc3ccc(Cl)cc3)cc2)C1 (centres unmarked)	18.6%
Cl.O=C(CCN1CCc2ccccc2C1)c1ccc2c(c1)OCCO2	-32.2%
CCOC(=O)c1ccc(NC(=O)CN2C(=O)CSC2=O)cc1	-6.34%
COc1ccc(C2C(C(=O)N3CCN(C)CC3)c3cc(OC)c(OC)cc3C(=O)N2C)cc1 (centres unmarked)	4.02%
O=C(CCn1c(=S)[nH]c2cc3c(cc2c1=O)OCO3)N1CCc2ccccc2C1	-26.5%
O=S(=O)(NCCc1ccccc1)c1cccc(S(=O)(=O)N2CCOCC2)c1	-11.6%
NC(=O)c1ccccc1NC(=O)COC(=O)C1(c2ccccc2)CC1	-6.94%
COc1ccc(C2c3cc(OC)c(OC)cc3CCN2C(=O)c2ccccc2)cc1OC (centres unmarked)	2.95%
CCOC(=O)CSc1nc2cc(C(=O)NCc3ccco3)ccc2c(=O)n1-c1ccc(F)cc1	-7.69%
O=C(NCC(=O)N(Cc1cccs1)C(C(=O)NC1CCCCC1)c1ccco1)c1cccs1 (centres unmarked)	-16.6%
CC1CCCC(C)N1CCCNC(=O)c1ccc2nc(N3CCCCC3)sc2c1 (centres unmarked)	-38%
Cc1oc(-c2ccc(Cl)cc2)nc1CS(=O)CC(=O)NC1CCCC1 (centres unmarked)	-11.8%
COc1cc2cc(C(=O)N/N=C/c3cccc(OC)c3OC)[nH]c2cc1OC	14%
Cc1cccc(N(CC(=O)NC2CCCCC2)C(=O)c2c(C)noc2C)c1	13.3%
NC(=O)c1ccc(SCC(=O)OCC(=O)N2CCCC2=O)c([N+](=O)[O-])c1	-7.67%

Compound	hERG current change (%, negative = inhibition) at 10uM
O=C(/C=C/c1ccccc1)NCCc1ccc2c(c1)OCCO2	-31.1%
CCN(CC)CCCNC(=S)N1CCC(c2nc3ccccc3[nH]2)CC1	9.2%
O=C1C2CCCN2C(c2ccccc2)N1c1ccc(F)cc1 (centres unmarked)	0.786%
CCC(=O)N(Cc1ccco1)C1CC(=O)N(c2ccccc2)C1=O (centres unmarked)	-49.2%
Nc1cc(Cl)ccc1C(=O)OCC(=O)N1CCOCC1	23.2%
Cc1nc2ccccc2c(=O)n1/N=C/c1cc(Br)cc(Br)c1O	7.17%
COc1ccc(-n2nc(C(=O)NCC(=O)N3CCN(c4ccccc4F)CC3)c3ccccc3c2=O)cc1OC	-9.27%
O=c1[nH]c2ccccc2[n+]([O-])c1-c1ccccc1	17.3%
CCOc1ccc(C(=O)NCC(=O)NCC(c2ccco2)N2CCCCC2)cc1 (centres unmarked)	3.68%
O=C(Cc1cccs1)Nc1ccc(-c2nnn(CC(=O)N3CCOCC3)n2)cc1	5.87%
CC1CCCN(C(=O)CSc2nnc(-c3ccco3)n2C)C1 (centres unmarked)	9.42%
Cc1cc(C)c2c(n1)nn1c(NCCCN(C)C)cc(C)nc21	-19.3%
COC(=O)C1CCN(C(=O)COC(=O)c2oc3ccccc3c2C)CC1	-23.9%
O=C(NCCc1ccccc1)C1CCN(C(=O)c2sccc2-n2cccc2)CC1	-9.44%
O=[N+]([O-])c1cccc(S(=O)(=O)Nc2cccc(-c3ccc(N4CCOCC4)nn3)c2)c1	-11.8%
COc1ccc(OC)c(NC(=O)C2CCN(Cc3cnn(-c4ccccc4)c3-n3cccc3)CC2)c1	-28.6%
COc1ccc(CC(=O)Nc2nc(-c3ccc(F)c(F)c3)cs2)cc1	-3.93%
O=C(Nc1cccc(-c2nn[nH]n2)c1)c1ccc(Br)s1	9.22%
